The test deals with 3T3-CD74-ROS tumor xenograft. To be noted: for tumor growth inhibition: oral, 10 days.

Like-named read-outs stand apart in the source and are kept apart here.

On to `C[C@@H](Oc1cc(-c2cnn(C3CCNCC3)c2)cnc1N)c1c(Cl)ccc(F)c1Cl` [Crizotinib, 3-[(R)-1-(2,6-dichloro-3-fluoro-phenyl)-ethoxy]-5-(1-piperidin-4-yl-1-H -pyrazol-4-yl)-pyridin-2-ylamine], for which the tumor growth inhibition came out at 54% (20 mg/kg/day group (10 mg/kg BID)) and 78% (40 mg/kg/day group (20 mg/kg BID)). For the same molecule, the “ROS phosphorylation in the 3T3-CD74-ROS tumors” value (7 hours post last oral administration, all treatment groups, ELISA) was “significant inhibition”.

The values above are taken from patent publication EP2764866A1, “Inhibitors of nedd8-activating enzyme” (IP Gesellschaft für Management mbH, priority 2013, dated 2014).
